# Measured values from the BET-seq Pho4 binding data (Le et al. 2018).
# The list shows a part of the results. The energies were worked out here from pooled read counts, against the library average; single values are noisy.
# Target: T1, Pho4 (S. cerevisiae) (UniProt P07270)
# T1 sequence: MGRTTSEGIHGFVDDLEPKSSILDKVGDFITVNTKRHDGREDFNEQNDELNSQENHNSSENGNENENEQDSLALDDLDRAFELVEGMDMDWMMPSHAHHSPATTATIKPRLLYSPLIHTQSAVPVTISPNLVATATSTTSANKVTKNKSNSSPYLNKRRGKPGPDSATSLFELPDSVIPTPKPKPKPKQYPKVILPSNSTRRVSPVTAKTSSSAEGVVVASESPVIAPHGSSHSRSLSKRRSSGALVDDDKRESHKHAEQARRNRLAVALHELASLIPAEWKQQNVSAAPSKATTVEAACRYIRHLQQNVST
# Assay: relative binding free energy (BET-seq); higher = weaker binding
# Conditions: reference: library average
row,Sequence,relative binding free energy [kcal/mol]
1,TATTCCACGTGGGGTG,-0.2
2,AGGAGCACGTGGTGAG,-0.1
3,GCTTGCACGTGCGTGT,-0.12
4,TGGATCACGTGTAAGC,0.23
5,GGCATCACGTGGTTGA,0.13
6,TACCTCACGTGTTGTG,0.19
7,CCGATCACGTGGGGGG,-0.01
8,ATGCTCACGTGGTGGC,0.17
9,TGTTTCACGTGGTCGA,0.22
10,TTCCTCACGTGGAGGG,0.14
11,AGTTTCACGTGGGGCA,0.15
12,TTTTACACGTGGTTAA,0.12
13,CGGCTCACGTGTGGGA,0.13
14,TTGGCCACGTGACGTT,0.1
15,TGGTGCACGTGTTCTA,-0.17
16,ATTCTCACGTGGGAAG,0.3
17,ATGTACACGTGTAATG,0.1
18,GAAGGCACGTGTTGCG,0
19,AGCTGCACGTGGGTGC,-0.14
20,ATAGCCACGTGTATGG,-0.12
21,TATTGCACGTGAGTAA,0.07
22,GCTCTCACGTGGGGTT,0.25
23,CGCGTCACGTGTTATG,0.12

row,Sequence,relative binding free energy [kcal/mol]
1,TTTGTCACGTGGGGAC,0
2,GTTGGCACGTGTGTTC,0.02
3,TTTATCACGTGTAGTG,0.24
4,GTAATCACGTGAGGTG,0.31
5,TGAAGCACGTGCTTGG,-0.05
6,GCTATCACGTGAAGGG,0.4
7,TTGCCCACGTGGTATT,0.04
8,AAGGGCACGTGGAGTG,-0.08
9,CTGGTCACGTGCTTTG,0.03
10,GAAAGCACGTGATGTG,0.2
11,TCGCTCACGTGGTGGA,0.22
12,GTATCCACGTGATGTT,0.17
13,TTCTTCACGTGTGTAC,0.31
14,TTGTGCACGTGTGACG,0.02
15,GTATACACGTGTTGGC,0.09
16,ATGGTCACGTGCATGG,0.02
17,ATGAGCACGTGCTAGG,-0.27
18,CGGGGCACGTGGAAGT,-0.01
19,GTGTTCACGTGGCATT,0.11
20,AGGAGCACGTGCGTAG,-0.21
21,TAAGTCACGTGGTTCG,0
22,CTTTTCACGTGGTTTA,0.17
23,CGGTCCACGTGGATGG,-0.06

row,Sequence,relative binding free energy [kcal/mol]
1,TGAAGCACGTGTCGTT,-0.06
2,TTGCGCACGTGGCGTG,-0.26
3,TGGGCCACGTGGTACG,-0.17
4,TTCGTCACGTGGGGTG,-0.08
5,ATAGTCACGTGATGCG,0.06
6,TTTGTCACGTGCTGCG,0.01
7,TGGTTCACGTGAAGCT,0.26
8,GTATACACGTGTGATT,0.17
9,GTGCTCACGTGAGTTA,0.31
10,AAACTCACGTGTTGTT,0.23
11,TGTTCCACGTGGTCGT,-0.14
12,TGTCACACGTGCGGAG,0.19
13,CTAGTCACGTGATGGG,0.18
14,GTGTTCACGTGTAGTC,0.37
15,AGGCGCACGTGTGCAG,-0.05
16,GACGGCACGTGATTTG,0.15
17,GGCATCACGTGGGAGT,0.09
18,TAAGTCACGTGGGCGC,-0.03
19,CGTGTCACGTGGAATG,0.18
20,TTTAACACGTGTTTTG,-0.06
21,GTTAACACGTGTGGAG,0.15
22,ACGATCACGTGAGGTG,0.27
23,GGGTGCACGTGTTATG,-0.01

row,Sequence,relative binding free energy [kcal/mol]
1,TGGTTCACGTGCATGT,0.36
2,CAGTGCACGTGGTAGG,-0.16
3,ATTGTCACGTGACAGT,0.2
4,TTTTACACGTGAGAAG,0.34
5,TTTATCACGTGCGCAG,0.13
6,TTGGTCACGTGGCTCT,-0.06
7,AGATCCACGTGGTGGG,0.01
8,TAGAGCACGTGGGTTT,-0.08
9,TGGTTCACGTGCATCT,0.28
10,TGCGTCACGTGGTAGT,-0.04
11,GTTTTCACGTGAGCGT,0.27
12,CATGGCACGTGAGTGT,0.13
13,ATATGCACGTGAGTTG,0.19
14,GGAAGCACGTGGAGAG,0.02
15,GTATCCACGTGATTTT,0.29
16,TGAGGCACGTGCTTTT,-0.16
17,GGGTGCACGTGAGTTC,0.27
18,AATTTCACGTGCTGGT,0.13
19,GAAGGCACGTGGGGCA,-0.24
20,TTATGCACGTGTACGA,0.03
21,ATGTCCACGTGTAGTG,-0.02
22,GAGGACACGTGGGCTG,0
23,GGGGTCACGTGTATTC,0.32

row,Sequence,relative binding free energy [kcal/mol]
1,TTTTGCACGTGGAGCC,0.18
2,AAGGCCACGTGCTGGG,-0.18
3,AGGGGCACGTGCTTTT,-0.18
4,ATATTCACGTGTTTAG,0.22
5,TTTAACACGTGTACGG,0.09
6,ACATTCACGTGTGAGT,0.31
7,GGTTGCACGTGCCAGT,0.02
8,TGGTTCACGTGTCGGA,0.33
9,CAGGGCACGTGGTAAA,-0.05
10,AAGTTCACGTGATAGG,0.24
11,GTTGTCACGTGTCATA,0.07
12,GGGCGCACGTGCGTGG,-0.16
13,TTATTCACGTGTCAAG,0.26
14,TAAGGCACGTGAGGCG,0.08
15,TGTTTCACGTGCGTAG,0.28
16,TTGATCACGTGTGTTT,0.24
17,TATCGCACGTGTTGGC,0.12
18,GGAGGCACGTGAGTTT,0.2
19,ATTTGCACGTGTAGAG,0.1
20,TTGTACACGTGTCGTT,0.14
21,CGTGCCACGTGTGTGA,-0.02
22,TTGGACACGTGCCGGT,-0.01
23,AGAAGCACGTGTGGCG,-0.02
